PubChem BioAssay AID504339 (National Center for Advancing Translational Sciences (NCATS), 2011)
Hit rate of the full screen: of about 390,000 compounds, about 17,000 (4.4%) were called active. Inconclusive means that the source gave no clear call. Such entries were picked first, then a sample of the others. Calls follow the shape of the dose curve; as a rule, active = well fitted inhibition curve with a large enough effect; inconclusive = small, poorly fitted or top-dose-only effect; inactive = no such curve, though single readings can be large or run the other way. Where the call is inconclusive, the potency comes from a doubtful curve fit.

These molecules were tested against Lysine-specific demethylase 4A (Homo sapiens) (UniProt O75164) (assay: qHTS Assay for Inhibitors of JMJD2A-Tudor Domain). Settings: AlphaScreen JMJD2A-Tudor / H3K4me3 peptide binding; series mostly up to 114 µM.
Also: nearly all actives have a fitted effect of over 50% in size.
Potency is read from the fitted curve at half-maximal effect; tags tell the direction and shape of the fitted curve.

Chain of UniProt O75164 (O75164 whole entry, looked up, the tested form may be a part): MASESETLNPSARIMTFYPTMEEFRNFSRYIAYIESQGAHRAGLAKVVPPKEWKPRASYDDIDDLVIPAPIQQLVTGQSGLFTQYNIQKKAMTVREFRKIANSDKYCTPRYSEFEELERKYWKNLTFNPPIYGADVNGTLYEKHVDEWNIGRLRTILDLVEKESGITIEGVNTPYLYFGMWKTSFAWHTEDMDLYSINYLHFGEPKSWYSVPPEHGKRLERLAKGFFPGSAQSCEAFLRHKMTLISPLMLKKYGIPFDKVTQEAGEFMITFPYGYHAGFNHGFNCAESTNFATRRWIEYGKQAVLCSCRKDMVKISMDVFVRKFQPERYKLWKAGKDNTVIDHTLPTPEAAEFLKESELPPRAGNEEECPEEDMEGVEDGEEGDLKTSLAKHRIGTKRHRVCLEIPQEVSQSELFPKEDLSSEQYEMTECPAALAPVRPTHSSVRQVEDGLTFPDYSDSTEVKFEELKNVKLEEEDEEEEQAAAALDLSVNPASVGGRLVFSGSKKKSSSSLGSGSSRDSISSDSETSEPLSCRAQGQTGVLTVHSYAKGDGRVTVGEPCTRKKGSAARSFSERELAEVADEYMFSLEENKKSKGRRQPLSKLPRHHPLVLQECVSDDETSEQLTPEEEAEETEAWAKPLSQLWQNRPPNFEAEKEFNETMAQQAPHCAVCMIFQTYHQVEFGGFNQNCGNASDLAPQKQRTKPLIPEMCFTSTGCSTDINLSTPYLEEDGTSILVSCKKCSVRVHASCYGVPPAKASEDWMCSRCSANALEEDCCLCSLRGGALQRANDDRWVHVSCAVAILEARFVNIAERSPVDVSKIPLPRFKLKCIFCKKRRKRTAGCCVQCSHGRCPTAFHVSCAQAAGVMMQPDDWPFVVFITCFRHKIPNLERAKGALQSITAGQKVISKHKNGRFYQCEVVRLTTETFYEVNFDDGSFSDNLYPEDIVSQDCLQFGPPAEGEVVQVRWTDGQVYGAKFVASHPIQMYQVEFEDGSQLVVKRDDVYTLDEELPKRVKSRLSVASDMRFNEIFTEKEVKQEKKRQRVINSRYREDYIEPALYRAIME

Row | Structure (SMILES) | Potency
1 | C[n+]1cccc(CNC(=O)/C=N/O)c1 | inconclusive: 79.4 µM [inhibitor, partial curve]
2 | CCN1C(N(C)CCc2c[nH]c3ccccc23)=N[C@@H](c2cccc(C(F)(F)F)c2)C(C(=O)OC)=C1C | inconclusive: 28.2 µM [inhibitor, full curve]
3 | Cc1ccccc1NC(=O)c1cccc(NC(=O)c2ccccc2C(=O)O)c1 | inactive
4 | O=C(NCNC(=O)c1ccccc1)c1ccccc1 | inactive
5 | Cc1cc(C)cc(OC(C)C(=O)Nc2nonc2-c2ccc(Br)cc2)c1 (configuration not stated) | inactive
6 | Cc1ccc(-n2c(N)c(C(=O)N3CCOCC3)sc2=S)c(C)c1 | active: 35.5 µM
7 | COc1ccc(/C=C2\SC(=S)N(CC(=O)N(C)C3CCS(=O)(=O)C3)C2=O)cc1 (configuration not stated) | inconclusive: 100 µM [inhibitor, single point]
8 | Cc1cccc(S(=O)(=O)C(C#N)c2nc3ccccc3nc2N2CCCC2)c1 (configuration not stated) | inconclusive: 89.1 µM [inhibitor, single point]
9 | CN(c1ccc(O)cc1)c1nc(-c2cccs2)cs1 | inconclusive: 56.2 µM [inhibitor, partial curve]
10 | COc1cc(Br)c(CC(=O)O)cc1OC | inactive
11 | CCC(CC)N1CCN(C(=O)c2cc(OC)c(OC)c(OC)c2)CC1 | active: 50.1 µM
12 | Cc1[nH]n(-c2ccccc2)c(=O)c1C=Nc1cccc2cccnc12 | inconclusive: 39.8 µM [inhibitor, partial curve]
13 | CCn1c(=O)c2c3c(sc2n2c(=S)[nH]nc12)CCC3 | active: 7.94 µM
14 | COc1ccc(N2C(=O)C(Cl)=C(Nc3ccccc3OC)C2=O)cc1 | inconclusive: 22.4 µM [inhibitor, single point]
15 | O=C(O)CCc1ccc(-c2cccs2)o1 | active: 100 µM
16 | COc1ccc(NC(=S)NCC(O)c2ccccc2)c(OC)c1 (configuration not stated) | inactive
17 | COc1ccc(NC(=S)N2CCN(C/C=C/c3ccccc3)CC2)cc1OC | inactive
18 | CCOC(=O)c1c(C)[nH]c(C)c1C(=O)COC(=O)c1cccc(C)c1O | inconclusive: 56.2 µM [inhibitor, partial curve]
19 | Fc1cccc(NC(=S)NNc2c3ccccc3nc3ccccc23)c1 | inconclusive: 25.1 µM [inhibitor, partial curve]
20 | C=CCN1C(=O)C(C)(C)N(C(=O)c2cccc([N+](=O)[O-])c2)c2ccccc21 | inconclusive: 44.7 µM [inhibitor, partial curve, poor fit]
21 | CCCc1ccc(C(C)NC(=S)NC2CCCCC2)cc1 (configuration not stated) | inactive
22 | Cc1cc(Oc2ccc(C#N)cc2)nc(NCc2ccccc2)n1 | inconclusive: 3.98 µM [inhibitor, single point]
